# According to the RNAGym collection of RNA variant scans (doi:10.7554/elife.90254):
# Read counts are not given, so values of variants with three or more changes are uncertain.
# B1: OR4K15 (parent)
# chain: GUUAACGGUCAUAGGCCAUGGAAACUAGGAGCACCAUUUCGCUGCCAGUGAAGAAAUGAACAAAGAAAAUCUGGGCCAGGCAGGCAUCAAAAGAAAUAGUCUUGCGCUCAACCAGAAAGUCUGUAAUCAUUUUAAGGGUA
# Variants of: B1
# Experiment: self-cleavage, relative activity (ratio to wild type); higher = more cleavage; in vitro, sequencing; the parent is a self-cleaving ribozyme
row,Variant,self-cleavage
1,C40U A67G A92U U127C,1.24
2,A36U A52G A95G U103C U108C U122C U131C,0
3,A11G U97C A111G,0.06
4,U12C U43G U108G,0.07
5,A18G C45U A62G,0.89
6,A4G A27C A62G A64G C105U,0.14
7,A82G U108A A117G,0.02
8,A36U A55G A90G A96G,0.81
9,U43C U120C U124C,0.49
10,U2C U26C A111C A135U,0.03
11,G14A A55G U122C A129G A135G,0.37
12,U38C A94G U127C,0.64
13,A62G U72A A91G G104A U130C,0
14,A22G A33G A69U A86G U103C,0.77
15,U19C A24G A134G,1.1
16,U37C A78U A92G,0.4
17,A24G U37C A47G A59U A90G U133C,1.71
18,U2C A22G A33G A91G A118U U132C,0.11
19,G99U U100C A116G A118U,0.04
20,U9C A55U U131C,1.67
21,A24U A54U A64G,1.5
22,A24G G50A A111G,0.03
23,A22G U57A G74A G106A,0.02
24,U19G A59U A111G A118U,0.06

row,Variant,self-cleavage
1,U9C A110G U139C,0.11
2,U12C G58U U108A,0.02
3,A92C U108C U130C,0
4,C42U U43A U100C A135U,2.29
5,A56G A111G U127C,0.01
6,A22C U87C A140G,1.76
7,G7A U37C A95G C113G U127C,0
8,A114G A117G U131C,0.11
9,U3C C34U U39C,1.53
10,A56G U124C A125G,1.52
11,A23G A62G A68G A114G U127A,0.22
12,A36G A78G A95C,0.1
13,A55G A95U A118U,1.02
14,A11C A22G A78G,0.4
15,A23G U43C A64G A90G,0.5
16,A22G A60G U108C C113U A114G A125U A126G,0
17,U2C U57G A94G C128A,0.46
18,U39C A63C A92G U127A U139C,1.78
19,G48A A52G A56G,1.43
20,U38C A69G U124C,0.44
21,A4G U12C G106U C113A,0
22,A52U A62U A69G G73U A90G U120C U122C,0.03
23,A36G A64G A82G U108C U131C,0.01
24,U39C A63G A94G,0.89

row,Variant,self-cleavage
1,A23G U39C A62U A68G U70C U131C,1.27
2,A36G A47U A51U,1.46
3,U3A A24G A82G,0.68
4,A5G A36U A135G,1.03
5,A33U A110G C113A A118G,0.01
6,A13U A22U U108C U124C,0.02
7,G21U A60G A91G,0.8
8,A18G A30G U108C A140G,0.04
9,U26C A62G A68G A92G,0.59
10,U12C A30G A90G A116G U139C,0.56
11,A11G A52U A114U,0.04
12,A51G A111G U120A,0.01
13,A18G U37C U57C U132C,0.47
14,U39C A54G A94G,1.39
15,A52G A60G C71A,0.47
16,U87A U131C G137A,0.7
17,A64G A78G A126C,0.06
18,A23G A24G U130C U131C,0.36
19,A11G U37C A68G A82G A110G A111G U127C,0.02
20,A4G U9C A24G A47G A51U A56G U70C U108C,0.08
21,A11G A18G A54G A110G,0.07
22,A56G U102C A111U A135G,0.04
23,U12A A117U U120G,1.18
24,U2C U9C C46U A67G U70C A92G A94G,0.65

row,Variant,self-cleavage
1,A5G U9A A54C A62G C128U,1.39
2,A52G A82U A91C,0.06
3,A30G C35U U133A,0.96
4,U2G U19C G21A A33G A140G,0.74
5,A51U A98G A114G A126G U131C,0.06
6,G1A A30G A67U U72A,1.04
7,A51G A64G U100C U133A,1.61
8,A24U C45A A62C,1.46
9,A4G U9A A11G A60G A92G A95G A135U,1.62
10,A51G A62G U97A,0.85
11,U2G U12C A68G U72A,0.26
12,U19A A22G A24G A86G A116G A129G,0.13
13,U70C U87A U102C A118U,0.4
14,U87C U108A A111U,0.01
15,A13U U124C G138U,1.04
16,A33G A64U A67G A82U,0.12
17,U9C A11C A54G G80A A90G,0.32
18,A18G A51G A90G U131C A140U,0.28
19,A55G A60G A68G A126G,0.59
20,A47C A59G A86U,1.78
21,U19C A23G A30G A33U C61U A110G A118G,0.13
22,A5G A27G G31A A90U,1.25
23,U49C A60G U87G C88U U103C,0.7
24,A11U U12C A22G,0.74

row,Variant,self-cleavage
1,A24G A30G U38C A52G A82G,0.56
2,A5G A22G U38C A86U U103C,1.08
3,A5U A27U A55G U131C,0.79
4,G75A G79A A96U,0.16
5,A86G A114G U120C,0.12
6,A47U A55G A60G A82G,0.16
7,A60U C76A U127A U131C G137A,0.15
8,U19C A22G U103C,1.14
9,G1C A36G U39C U133C,1.44
10,C76A A78G A90C,0.07
11,A89U A96G U124C,1.18
12,A24U U43G A59G G73A G74A,0.46
13,U12A A91G U133A,1.39
14,A47G A62G A78U,0.24
15,A11G A55G A64G,1.54
16,A33C A52G A59G,1.46
17,A54G A68U A69G,0.82
18,A91G A110G C128U A129U U131C,0.05
19,U43A A78U A90G,0.3
20,A52U C61U A64G A135U U139C,1.19
21,A27G U108C U122C,0
22,A47U A55G U57G,0.27
23,A22G A66G A140G,1.54
24,U38C A78U A126G,0.54

row,Variant,self-cleavage
1,U38A C76A A92G,0.26
2,A33G U37A G41U A60G A82G U102A,0.46
3,A30G A82G U103C U130C,1.92
4,G8A U9C A52G A111G A116G,0.04
5,U19A A24G A30U,0.91
6,A22G A33G A89U,1.06
7,A5G A54G A78C,0.33
8,U19A A90G A116G,1.28
9,A52G A86G A89G U100C U108C,0.01
10,A59U U100A A125G,0.21
11,A18G A22G A78G A82G A114G,0.08
12,G1A A54G A55U U103C,1.32
13,U37C A59G U131C,1.43
14,A11U A82C A114G,0.06
15,A36U A66G A78U A82G A91G,0.04
16,A82G A98G A116G,0.05
17,A24G C46U A129G,1.89
18,U37C A62C A82U A129U U130C,0.12
19,A23G A94G A129G,0.63
20,A30C A55G A59G U72C A110G,0.11
21,A23C U72C A92G G93A U97A C105G,0.02
22,A18U A24G U70C U87C,0.9
23,A4G A78G A92G,0.43
24,U9C A69G U102C,1.74

row,Variant,self-cleavage
1,G99A U102C U130A,1
2,A23G A33G U102A,0.29
3,A62G A67U A68G U122C,1.23
4,A33G A59U U97C A116G,0.19
5,A59G U122A G123A,2.52
6,A66C U122C A134G,1.43
7,A60G A67G G106A,0.02
8,A67G U102C A110G,0.19
9,U39C A90C A92G,0.66
10,U39C A56G A69G,1.15
11,G20A A27G A60U A64G U133A,1.02
12,A51G A60G A118G,0.85
13,U9C A18G A96G,1.83
14,U103C U124A U130C,0.17
15,A47G A62G U108C,0.03
16,A23G A24G A68G U131C,0.84
17,A13G U37C A95G U103C,1.15
18,A62U C101A U102C A110G U120C,0.09
19,C6A U37C A89G,0.68
20,A66G A82U U108C,0.02
21,A24G U39A A63U A89C U120C,0.74
22,C25U U49C U57C U108C A129C,0
23,U2C A78U A95G A129G,0.44
